Measurements: PubChem BioAssay AID463173 (ICCB-Longwood Screening Facility, Harvard Medical School, 2010)
About 4,300 (8.3%) of roughly 52,000 compounds were called active. Rule as the data show it: active = survival mostly below about 52% (no sharp cut-off); inactive = mostly above about 56%. The list shows a part of the results.

The molecules below were run on DeltatarO mutant (assay: growth inhibition of S. aureus wild type versus tarO mutant, primary screen, teichoic acid synthesis inhibitors, RN4220, OD600 (AID 463173)). Conditions: OD600, 18 h, active compounds read low, screened at 18.75 µg/mL (by protocol).

Compound	survival
Cc1ccc(C)c(CN2CCC(CNC(=O)c3cc4ccc5cccnc5c4[nH]3)CC2)c1	inactive: 83%
Cc1ccc(C)c(S(=O)(=O)n2nnc3ccccc32)c1	inactive: 86%
O=C(Nc1ncn[nH]1)C(F)(F)C(F)F	inactive: 68%
Cc1ccc(C2=CC(c3c(F)cccc3Cl)n3ncnc3N2)cc1C (configuration not stated)	inactive: 64%
CC(=O)Nc1cc(-c2nc3ccccc3s2)ccc1C	inactive: 83%
Cc1cc(C)cc(NC(=O)C2CCCN2S(=O)(=O)c2cccc3nsnc23)c1 (configuration not stated)	inactive: 86%
CCn1c(-c2ccc(S(=O)(=O)N3CCOCC3)cc2)csc1=Nc1ccc(C)c(Cl)c1	inactive: 73%
O=C(CSc1nnc2[nH]c(=O)cc(-c3ccccc3)n12)Nc1ccc(F)cc1F	inactive: 85%
COc1ccc(NC(=O)CSc2nc3nc(C)c(Cc4ccccc4Cl)c(C)n3n2)cc1OC	inactive: 93%
COc1ccc(C)cc1NS(=O)(=O)c1cc2c3c(c1)CC(=O)N3CCC2	inactive: 105%
CCOc1cc(NC(=O)C2CC2)c(OCC)cc1NC(=O)CCn1nnc2ccccc21	inactive: 80%
CCn1c(=N)c(C(=O)NC2CCCCC2)cc2c(=O)n3cc(C)ccc3nc21	inactive: 45%
Cc1ccccc1CCNC(=O)c1cc2cc(S(=O)(=O)N3CCCCC3)ccc2n1C	active: 20%
COc1ccc(-n2c(=O)c3ccccc3n(CC(=O)NCCc3ccc(OC)c(OC)c3)c2=O)cc1	inactive: 90%
COc1cc2c(cc1OC)C(COc1cc(C)cc(C)c1)N(C(=O)COc1ccccc1)CC2 (configuration not stated)	inactive: 74%
COc1ccc(Cl)cc1NC(=O)CCCN1C(=O)C(c2ccccc2)Oc2cccnc21 (configuration not stated)	inactive: 93%
CCN(CC)c1ccc(NC(=O)c2sc3nc4c(cc3c2N)CN(C)CC4)cc1	inactive: 181%
CC(C)(C)C(=O)C1=C(O)C(=O)N(c2ccccc2)C1c1ccccc1 (configuration not stated)	inactive: 64%
CCn1c(C(=O)N2CCCC(C(=O)N3CCN(c4cc(C)ccc4C)CC3)C2)cc2sccc21 (configuration not stated)	inactive: 62%
O=C(Nc1ccc2nc(SCC(=O)N3CCc4ccccc43)sc2c1)c1cccc(Cl)c1	inactive: 100%
COc1cc(OC)c(OC)cc1CNc1sc2c(c1C(=O)Nc1ccccc1OC)CCC2	inactive: 113%
CN(C(=O)CCS(=O)(=O)c1cc2c(cc1Cl)NC(=O)CO2)C1CCCCC1	inactive: 95%

Compound	survival
Cc1ccc(CCNC(=O)CCS(=O)(=O)c2cc3c(cc2C)NC(=O)CO3)cc1	inactive: 85%
Cc1nncn1-c1ccc(C(=O)Nc2cc(F)ccc2F)cc1	inactive: 94%
O=C(Nc1c(C(=O)N2CCN(c3ccccc3)CC2)oc2ccccc12)c1ccco1	active: 37%
Cc1c(C(=O)NCCc2ccc(Cl)cc2)sc2nc3n(c(=O)c12)CCCC3	inactive: 50%
CC(C)C(=O)NCC(c1ccc2c(c1)OCO2)N1CCN(c2ccccc2)CC1 (configuration not stated)	inactive: 99%
Cc1ccccc1CN1c2ccccc2-c2nc(SCC(=O)NCc3ccccc3)ncc2S1(=O)=O	active: 20%
COc1ccc(-n2ncc(C(=O)Nc3cccc(C(F)(F)F)c3)c2C2CCN(C(=O)OC(C)(C)C)CC2)cc1	inactive: 79%
Cc1ccc(C2=Nc3ccccc3N(CC(=O)NCc3ccccc3Cl)C(=O)C2)cc1C	inactive: 82%
COc1ccc(N2Cc3cccc(C(=O)Nc4ccc(F)cc4)c3C2=O)cc1	inactive: 92%
CCOc1ccc(NC(=O)c2oc3ccccc3c2NC(=O)c2c(F)cccc2F)cc1	inactive: 91%
C=CCNC(=O)c1ccc(CN2CCOCC2)cc1	inactive: 82%
CNc1nc2ccccc2o1	inactive: 89%
Cc1ccc2nc(CNC(=O)c3ccccc3)[nH]c2c1	inactive: 104%
COc1ccc(CCNC(=O)C(=O)NCC(c2ccc3c(c2)OCO3)N2CCOCC2)cc1OC (configuration not stated)	inactive: 69%
Cc1cccc(-c2noc(CSc3nc(-c4ccc(F)cc4)cc(=O)[nH]3)n2)c1	inactive: 83%
CCOc1ccc(N2C(=O)CC(NCCNC(=O)c3ccc(Cl)cc3)C2=O)cc1 (configuration not stated)	inactive: 102%
Cc1cccn2c(=O)c(C(=O)NCCc3ccccc3)c(O)nc12	inactive: 52%
CCN(c1cccc(C)c1)S(=O)(=O)c1nnc(NC(=O)c2ccccc2Cl)s1	active: 17%
Cc1ccc2nc(-c3ccc(NC(=O)COc4ccccc4)cc3)sc2c1	inactive: 68%
Cc1ccc(S(=O)(=O)Nc2ccc(N=NN3CCCCC3)cc2)cc1	inactive: 71%
CC(=O)c1ccc(N2C(=O)N(CC(=O)c3ccc(C)cc3)c3ccccc3S2(=O)=O)cc1	inactive: 80%
CCOc1ccc(NC(=O)C2CCCN(S(=O)(=O)c3ccc4[nH]c(=O)ccc4c3)C2)cc1 (configuration not stated)	inactive: 97%

Compound	survival
COc1ccccc1N1CCN(C(=O)CSc2nc3ccccc3nc2Cc2ccccc2)CC1	inactive: 101%
COc1cccc(-n2ccn(CC(=O)c3ccc(F)cc3)c(=O)c2=O)c1	inactive: 87%
Cc1ccc(CSC2=Nc3ccccc3C3=NC(CC(=O)NC4CCCCC4)C(=O)N23)cc1 (configuration not stated)	inactive: 71%
CCCN(CCC)S(=O)(=O)c1ccc2c(c1)N(CC(=O)NC(C)c1ccccc1)C(=O)CS2 (configuration not stated)	inactive: 67%
COc1ccc(CNC(=O)c2cc(Nc3ccc(C)cc3C)nc3ccccc23)cc1	inactive: 73%
Cn1cnc(S(=O)(=O)N2CCC(C(=O)N3CCN(c4ccccc4F)CC3)CC2)c1	inactive: 75%
CSc1cccc(NS(=O)(=O)c2cn(C)c(C)n2)c1	inactive: 75%
Cc1cc(C)cc(NS(=O)(=O)c2ccc3[nH]cc(C(=O)NCc4ccccc4Cl)c(=O)c3c2)c1	inactive: 115%
O=C(CSc1nnc(-c2ccc([N+](=O)[O-])cc2)o1)Nc1ccccc1	inactive: 81%
COc1cc(NC(=O)Cn2c(=O)n(Cc3ccco3)c(=O)c3oc4ccccc4c32)cc(OC)c1	active: 38%
Cc1ccc(OCCn2nnc3sc4c(c3c2=O)CCC(C)C4)cc1 (configuration not stated)	inactive: 54%
CCOC(=O)C(C)Nc1n[nH]c(=O)[nH]c1=O (configuration not stated)	inactive: 90%
CCOc1ccc(C(=O)N2CCC(c3noc(-c4ccc(S(=O)(=O)N5CCCC5)cc4)n3)CC2)cc1	inactive: 87%
CCc1c(-c2ccccc2)nc2ccccc2c1C(=O)NCc1ccc(C)cc1	inactive: 92%
CN(C1CCCCC1)S(=O)(=O)c1ccc2c(c1)c(=O)c(C(=O)N1CCN(c3ccccc3F)CC1)cn2C	inactive: 87%
COC(=O)c1cc(NC(=O)Cn2nc(-c3ccc(C)c(C)c3)ccc2=O)cc(C(=O)OC)c1	inactive: 65%
CCC(C)NC(=O)C1=CC(c2ccc3c(c2)OCO3)=NS(=O)(=O)N1C (configuration not stated)	inactive: 83%
CC(C)(C)c1ccc(C(=O)N2CCCCC2CCN2CCCCC2)cc1 (configuration not stated)	inactive: 83%
O=C(CN1C(=O)COc2ccc(S(=O)(=O)Nc3ccccc3)cc21)Nc1cccc(Cl)c1	inactive: 96%
COc1cccc2c1Oc1ncccc1N(C(=O)CCC(=O)NCc1ccccc1Cl)C2	inactive: 58%
COc1ccc2c(c1)cc1c(=O)n(CC(=O)NCCCc3ccccc3)nc(C)n12	inactive: 74%
COC(=O)c1ccc(Cn2nnc3c(=O)[nH]c(C4CCCN(S(=O)(=O)c5cccc(Cl)c5)C4)nc32)cc1 (configuration not stated)	inactive: 94%

Compound	survival
COc1ccc(N2CCN(c3nc4ccc(C)cc4n4nnnc34)CC2)cc1	active: -5%
O=C(Nc1ccc(Br)cc1F)N1CCC2(CC1)Oc1ccccc1C(=O)N2Cc1ccccc1F	inactive: 69%
CCN(c1ccccc1)c1nnc(NC(=O)Nc2ccc(Br)cc2F)s1	inactive: 97%
COc1ccc(C2C(C(=O)Nc3ccc(C)cc3C)=C(C)Nc3nc4ccccc4n32)c(OC)c1 (configuration not stated)	inactive: 77%
COc1ccc2occ(CC(=O)Nc3ccc(S(=O)(=O)Nc4nc(C)cc(C)n4)cc3)c2c1	inactive: 104%
Cc1cc(Cl)ccc1OCC(=O)N(Cc1ccco1)Cc1ccco1	inactive: 55%
COc1ccc(-c2cn3cccnc3n2)cc1NC(=O)c1cc(C)cc(C)c1	inactive: 61%
O=C(c1ccccc1)n1nnc2ccccc21	inactive: 106%
COc1ccc(-c2nnc(C3CCN(S(=O)(=O)c4ccc(C)c(C)c4)CC3)o2)cc1	inactive: 64%
Cc1ccc(-n2ncc(C(=O)N3CCN(c4ccc(Cl)cc4)CC3)c2C2CCN(C(=O)OC(C)(C)C)CC2)c(C)c1	inactive: 92%
CCOC(=O)c1ccc(NC(=O)c2ccc(=O)n(Cc3cccc(C)c3)c2)cc1	inactive: 67%
CC(O)CNc1nc2c(c(=O)n(Cc3ccc(Cl)cc3)c(=O)n2C)n1C (configuration not stated)	inactive: 145%
COc1ccc(CCNC(=O)CCc2c(C)c3cc4c(C)coc4c(C)c3oc2=O)cc1OC	inactive: 92%
Cc1ccccc1CSc1ncc(CO)n1Cc1ccc(F)cc1	inactive: 124%
CCOc1ccc(-c2cc(-c3nc(-c4ccc(OC)c(OC)c4)no3)[nH]n2)cc1	inactive: 72%
Cc1cc(C)nc(SCC(=O)Oc2ccc3oc(=O)cc(C)c3c2)n1	inactive: 95%
CC(=O)c1ccc(NC(=O)CC(c2cccs2)N2Cc3ccccc3C2=O)cc1 (configuration not stated)	inactive: 58%
COc1ccc(Cc2nc3ccccc3n2Cc2ccccc2F)cc1	active: 18%
CCN(C(=O)Cn1cnc2sc(C)c(S(=O)(=O)N3CCN(c4ncccn4)CC3)c2c1=O)c1ccccc1F	inactive: 57%
CCOc1ccc(-c2nnc(SCC(=O)NCc3ccccc3)o2)cc1	inactive: 93%
O=C1CN(C(=O)c2ccc(S(=O)(=O)N3CCCC3)cc2)C(c2ccccc2)c2cc(Br)ccc2N1 (configuration not stated)	inactive: 61%
